# Assay results reported in the supplement of paper PMC3334620.
# Over roughly 33,000 sequences, “E-score (-0.5 to 0.5)” has its median near -0.021; the highest 2% begin near 0.32. The list shows a part of the results.
# Biological target: T1, Zap1 (UniProt P47043)
# T1 sequence: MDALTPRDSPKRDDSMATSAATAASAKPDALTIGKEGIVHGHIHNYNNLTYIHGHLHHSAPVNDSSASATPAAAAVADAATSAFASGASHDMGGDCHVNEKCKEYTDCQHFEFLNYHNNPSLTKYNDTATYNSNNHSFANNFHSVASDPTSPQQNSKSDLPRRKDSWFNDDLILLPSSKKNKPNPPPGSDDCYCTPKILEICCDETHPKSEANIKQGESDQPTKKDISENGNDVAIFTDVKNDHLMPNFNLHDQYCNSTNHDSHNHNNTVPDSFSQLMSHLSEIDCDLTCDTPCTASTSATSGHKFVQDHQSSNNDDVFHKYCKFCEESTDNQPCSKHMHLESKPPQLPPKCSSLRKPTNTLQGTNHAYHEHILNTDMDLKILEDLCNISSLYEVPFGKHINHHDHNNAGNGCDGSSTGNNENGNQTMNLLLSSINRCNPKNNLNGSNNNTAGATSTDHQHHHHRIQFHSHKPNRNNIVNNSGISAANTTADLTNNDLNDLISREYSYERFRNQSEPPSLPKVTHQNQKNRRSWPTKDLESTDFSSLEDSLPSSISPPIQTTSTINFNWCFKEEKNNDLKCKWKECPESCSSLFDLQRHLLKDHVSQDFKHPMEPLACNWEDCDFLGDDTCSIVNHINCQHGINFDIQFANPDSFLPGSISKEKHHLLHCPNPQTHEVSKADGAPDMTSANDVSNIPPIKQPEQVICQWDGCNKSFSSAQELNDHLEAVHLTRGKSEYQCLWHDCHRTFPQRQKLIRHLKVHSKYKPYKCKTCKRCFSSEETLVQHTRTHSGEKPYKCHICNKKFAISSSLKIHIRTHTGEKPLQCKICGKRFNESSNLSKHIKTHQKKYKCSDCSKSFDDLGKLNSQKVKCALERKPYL
# Experiment: PBM E-score (8-mer binding enrichment) (E-score (-0.5 to 0.5)); higher = stronger / more preferred TF binding; most listed sequences are background and not binding sites
# Details: protein concentration: 200 nM; construct: GST-full length
# Procedure, shortened: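 For each ungapped eight-base word taken together with its reverse complement, the Universal PBM Analysis Suite assigned an E-score. Binding data came from GST-tagged yeast transcription factors, applied at about 100-200 nM, on universal all-10-mer Agilent arrays made double-stranded by primer extension. Fluorescent anti-GST marked bound protein, and scans were normalised with masliner.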
row,Sequence,PBM E-score
1,GCCCTAAA,-0.194
2,CTACTGTC,-0.25
3,GAGTTTAC,-0.0243
4,ACTCCAGT,-0.099
5,ACCAAACG,0.0901
6,ACTAACAT,0.119
7,GAGGTCCC,0.174
8,TACTAGTA,0.145
9,TGCGCACA,-0.037
10,AATTATCG,0.176
11,ATATTACC,0.251
12,AATCGGGG,0.0703
13,GAGTTCGA,0.0349
14,CGCGGGGC,-0.111
15,GCTAGCAA,-0.105
16,AGAAGAAA,-0.0343
17,AATATAGC,-0.0221
18,CAGCCGCC,-0.154
19,ACTAGAGC,-0.116
20,ACATAGGA,-0.178
21,GCTCTCGA,-0.0617
22,CCGACTCA,-0.101
23,CAAGAGTA,0.00378
24,GAGACCAC,0.15
25,CGATCGGA,-0.0483

row,Sequence,PBM E-score
1,AGTTTGTA,0.0748
2,CGATTACG,-0.051
3,CGTATTCA,0.0538
4,ATATCGAC,-0.00502
5,AGGTTGAT,0.0401
6,ATACCAGC,-0.0649
7,GACCTACC,0.109
8,ATTTGAAG,0.0444
9,CGTGACAC,-0.0877
10,TATAGAGA,-0.066
11,CGCGACTC,-0.0425
12,CCATTTCA,-0.11
13,AGCAGATG,-0.264
14,AATCGAAA,0.0353
15,CTCATGTA,0.00014
16,GCAACGAC,-0.218
17,AAAGCGGG,-0.212
18,CCGCAAAA,0.258
19,ATTAGACC,-0.0851
20,GTGGGAAA,-0.00346
21,CAACGACC,0.0537
22,CCGATTCA,-0.263
23,AGGACCCC,0.102
24,CGGGCCCA,-0.126
25,CCGGGTAC,0.348

row,Sequence,PBM E-score
1,CTCACCCA,0.00498
2,GACTATCC,-0.23
3,ATTAGTAG,0.0336
4,ACACCTCT,-0.111
5,CTCCCATC,-0.248
6,AACAACTT,0.172
7,GCCACGGA,-0.00937
8,CAGAGACA,-0.317
9,CGGCCTCA,0.162
10,ACAACTTC,0.229
11,ACACTTTG,0.0966
12,GAATTAGA,-0.00012
13,GCTGCAAA,0.19
14,TTATGAAA,0.183
15,AGCTCGTC,-0.294
16,AATCGAAG,0.026
17,CGCCGGAC,-0.167
18,ATGGCTGA,-0.0536
19,CACTCCGG,0.118
20,CAATCCTG,-0.0364
21,TAGCGAGA,-0.0721
22,ATTTGCGG,0.00189
23,CCGATGCC,-0.108
24,AACCCTCT,0.27
25,AGCCTAGC,-0.261

row,Sequence,PBM E-score
1,AGACCCGA,0.274
2,CCGCGTCA,-0.107
3,CTACACTC,-0.115
4,TGCTACCA,-0.0261
5,ACCTCTTG,0.29
6,TAGCACGA,-0.0403
7,AACCCGAA,0.327
8,AGGCTCAG,-0.176
9,CCTAGGTA,0.0255
10,GGCGGAAA,-0.00849
11,ATACCCCC,0.221
12,CGGGAAAC,0.103
13,ACTCTGAG,0.0108
14,CCCCTTTA,-0.00689
15,ACCATGGT,0.0512
16,CGGTCGTC,-0.0244
17,CACGGGAA,-0.237
18,CCCCCACC,-0.378
19,ATACTCTC,-0.15
20,GAGAACCA,0.187
21,CCCAGACG,-0.166
22,AGGGCACT,-0.219
23,GCTACGCC,-0.238
24,GAGGGAAA,-0.239
25,ATCTCTTG,-0.112

row,Sequence,PBM E-score
1,CTCCCATA,-0.177
2,ATTGCAGA,0.0451
3,CCGTAACC,0.471
4,CACCCTGG,0.169
5,ACAGCCAC,0.0177
6,CCTCATGC,-0.135
7,AAATTCAT,0.107
8,ATCGTCCG,-0.146
9,ACTTCATG,-0.0431
10,CACCCGTA,0.117
11,AGAGGAGC,-0.227
12,CCGCGAAC,0.163
13,AACAGTTA,0.0629
14,AATCCATG,-0.135
15,ACGCGCCG,-0.193
16,TAGTCCGA,-0.0595
17,GCTCAGCA,0.0141
18,GACCAAAC,0.115
19,AAGTATTA,0.138
20,ACACCCGC,0.0357
21,AATAGGTG,0.045
22,ACCCCTAC,0.293
23,CTTGGACA,-0.0713
24,AAAAACAT,0.0245
25,CTTACACC,-0.142

row,Sequence,PBM E-score
1,AGCCCTAT,-0.0625
2,GAAACTTA,0.14
3,CGTAGAAA,0.0715
4,AGGAAGCA,-0.253
5,AGATTCAT,-0.354
6,AGTTTTTA,0.0815
7,TGAACCCA,0.242
8,CAGTCGCC,-0.186
9,CCTGAGGA,-0.0361
10,CAAGTGGA,-0.188
11,AAACTTTA,0.149
12,CACAACAA,0.0567
13,AATCTGGT,0.182
14,CGTACTAC,0.0132
15,AGCCGGAT,-0.082
16,ATAGGCTG,-0.125
17,AGCCTTGC,-0.257
18,ACTATGTC,-0.105
19,AGTCAGGG,-0.15
20,GCTTCGAC,-0.216
21,ACGTAGGG,-0.289
22,CGAGCAGC,0.029
23,GAGGATCA,0.112
24,GTGGTTGA,0.0163
25,TGCGGCCA,0.138

row,Sequence,PBM E-score
1,AGATGGAA,-0.152
2,AATTTAGT,0.161
3,AAGGCGTA,-0.173
4,CGGTTCGC,-0.128
5,CCAAATGG,0.122
6,TCGGTGAA,-0.0901
7,AAGCTTAC,0.203
8,TAACATGA,-0.0126
9,AAAACCTC,0.291
10,GAGGGAGA,-0.233
11,CGCCCTGC,-0.0847
12,ATTAAGCA,-0.0391
13,CAGTGCTC,-0.041
14,TGAGGCCA,0.0976
15,CGAGGTTA,0.455
16,CCTTTTTA,0.205
17,ACTGTGCA,-0.096
18,CATTGGAC,0.0218
19,AGCCTACG,0.0114
20,CGTAAATC,0.146
21,AAGCGTAC,-0.161
22,ATAGGATG,-0.191
